Measured values: PubChem BioAssay AID1508642 (National Center for Advancing Translational Sciences (NCATS), 2021)
Screen size: about 43,000 compounds; about 200 (0.47%) were called active. The shares of active, inactive and inconclusive entries below differ from those in the screen. The call rests on the fitted dose curve; in most records, active means well fitted cell-killing curve with a large enough effect; inconclusive means small, poorly fitted or top-dose-only effect, or effect the other way; inactive means flat fitted curve, though single readings scatter. Where the call is inconclusive, the potency comes from a doubtful curve fit.

assay: Cell viability qHTS assay in S16 Pmp22-F2sN cells; conditions: S16 Pmp22-F2sN Schwann cells (luciferase reporters placed in the Pmp22 gene) viability, CellTiter-Glo, 24 h; series mostly up to 57.5 µM; further: nearly all actives have a fitted effect of over 65% in size
Method in brief: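 Rat S16 Schwann reporter line, 24 h treatment with library compounds delivered at 23 nL per well. Cell viability by CellTiter-Glo luminescence.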
Potency means the concentration at half of the fitted maximal effect; tags describe the fitted curve by direction and shape.

SMILES	Potency
O=S(=O)(Nc1ccc(F)c(C(F)(F)F)c1)c1ccc(N2CCCCS2(=O)=O)cc1	inconclusive: 31.6 µM [cytotoxic, partial curve, poor fit]
CCOc1ccc(C(=O)NCCc2sc(-c3ccc(C)cc3)nc2C)cc1	inconclusive: 22.4 µM [cytotoxic, partial curve, poor fit]
Cc1ccc(CCNC(=O)c2cc3c(s2)-c2ccccc2OC3)cc1	inconclusive: 39.8 µM [cytotoxic, single point]
CC(CNC(=O)c1sc2ncccc2c1-n1cccc1)c1ccccc1 (stereo unspecified)	inconclusive: 39.8 µM [cytotoxic, partial curve, poor fit]
O=C(CSc1c2c(nc3ccccc13)CCC2)Nc1ccc(F)cc1F	inactive
COc1ccc(Cn2c(=O)c3oc4ccccc4c3n(Cc3ccccc3)c2=O)cc1	inconclusive: 0.224 µM [rising, full curve, poor fit]
CCCN(CCC)CCCNC(=O)c1cc2c(-c3ccc(Cl)cc3)nn(C)c2s1	inconclusive: 39.8 µM [cytotoxic, single point]
Cc1ccc(Nc2c(-c3ccco3)nc3ccc(C)cn23)cc1	inconclusive: 11.2 µM [cytotoxic, partial curve, poor fit]
COc1ccc(CC(=O)Nc2c(C(=O)N3CCN(c4ccccc4F)CC3)oc3ccccc23)cc1OC	inactive
Cc1cccc(-n2nnc(-c3nc(-c4cccs4)no3)c2N)c1C	inactive
O=C1C2=C(Nc3ccccc3SC2c2ccc(C(F)(F)F)cc2)c2ccccc21 (stereo unspecified)	inconclusive: 39.8 µM [cytotoxic, single point]
CC(NC(=O)c1cccc(Nc2nc3ccccc3n3nnnc23)c1)c1ccccc1 (stereo unspecified)	inconclusive: 31.6 µM [cytotoxic, single point]
Cc1ccc(S(=O)(=O)NCCc2nnc3ccc(SCc4cccc(F)c4)nn23)cc1	inactive
COc1ccc(-n2nnnc2C2CCN(S(=O)(=O)c3cc(Cl)ccc3OC)CC2)cc1	inconclusive: 39.8 µM [cytotoxic, single point]
CCCCCN1C(C(=O)c2ccccc2)=C(NC(=O)c2ccc(OC)c(OC)c2)c2ccccc2S1(=O)=O	inconclusive: 39.8 µM [cytotoxic, single point]
COc1ccc(C2(CNC(=O)C(=O)Nc3ccc(C)c(Cl)c3)CCCC2)cc1OC	inconclusive: 25.1 µM [cytotoxic, single point]
Cc1ccc(Cl)cc1-n1c(=O)c2sc3ccccc3c2n(CC(=O)NC2CCCC2)c1=O	inactive
CC1CCN(CCNC(=O)c2ccc(Cn3c(SCc4ccccc4)nc4cccnc43)cc2)CC1	inconclusive: 0.178 µM [cytotoxic, single point]
COc1ccccc1CNC(=O)c1cccc(Nc2nc3ccccc3n3nnnc23)c1	inconclusive: 35.5 µM [cytotoxic, single point]
O=C(COc1ccc(F)cc1)Nc1ccc2nc(SCc3ccccc3)sc2c1	inactive
O=C(CC1(O)C(=O)N(CCc2ccccc2)c2ccc(Br)cc21)c1ccccc1O (stereo unspecified)	inconclusive: 14.1 µM [cytotoxic, partial curve]

SMILES	Potency
COc1ccc(NC(=O)C2=C(C)Nc3nc(SCc4ccccc4)nn3C2c2cc(OC)ccc2OC)cc1 (stereo unspecified)	inconclusive: 6.31 µM [cytotoxic, full curve]
Cc1cccc(N2C(=O)CCSC23C(=O)N(Cc2ccc(F)cc2)c2ccccc23)c1 (stereo unspecified)	inactive
O=C(c1ccc2c(Cl)c3c(nc2c1)CCCC3)N1CCN(c2cccc(Cl)c2)CC1	inconclusive: 5.62 µM [rising, full curve, poor fit]
Cc1c(-c2cccc(NC(=O)C(C)(C)C)c2)nc2ncccn12	inactive
CN1CC(=O)N(CC(=O)Nc2ccc(Cl)c(C(F)(F)F)c2)c2ccccc2C1=O	inconclusive: 31.6 µM [cytotoxic, single point]
Cc1nnc(SCC(=O)NCc2ccccc2F)c2nn(-c3ccc(Cl)cc3)c(C)c12	inconclusive: 35.5 µM [cytotoxic, partial curve, poor fit]
CC(C)(C)OC(=O)N1CCC(c2c(C(=O)NCc3ccco3)cnn2-c2ccc(F)cc2)CC1	inconclusive: 15.8 µM [cytotoxic, partial curve, poor fit]
CCSc1ncc(Cl)c(C(=O)N2CCN(c3ccc(OC)cc3)CC2)n1	inconclusive: 39.8 µM [cytotoxic, partial curve, poor fit]
CCN(CC)c1ccc(NC(=O)C2COc3ccc(OC)cc3C2)c(C)c1 (stereo unspecified)	inconclusive: 25.1 µM [cytotoxic, single point]
CCN(CC)CCCNC(=O)c1ccc2nc(CCc3ccccc3)oc2c1	inconclusive: 0.251 µM [rising, full curve, poor fit]
O=C(Nc1ccc(F)cc1F)c1ccc2c(=O)n3c(nc2c1)CCCCC3	inconclusive: 10 µM [rising, partial curve, poor fit]
Cc1c(C(=O)N(C)c2cccc(C(F)(F)F)c2)sc2nc3n(c(=O)c12)CCCCC3	inactive
CC(=O)c1ccc(NC(=O)C2CCC(CNS(=O)(=O)c3ccc4c(c3)CCCC(=O)N4)CC2)cc1 (stereo unspecified)	inconclusive: 31.6 µM [cytotoxic, single point]
O=C(Cn1c(=O)nc(-c2ccccc2)c2ccccc21)NCCCc1ccccc1	inactive
CCOc1ccc(NC(=O)c2ccc(F)c(S(=O)(=O)NCc3ccc4c(c3)OCO4)c2)cc1	inconclusive: 39.8 µM [cytotoxic, single point]
CCCCc1ccc(NC(=O)COc2cccc3c(=O)n(C)ccc23)cc1	inconclusive: 39.8 µM [cytotoxic, partial curve, poor fit]
Cc1ccc(C(CC(=O)Nc2cc(C)cc(C)c2)N2Cc3ccccc3C2=O)cc1 (stereo unspecified)	inconclusive: 28.2 µM [cytotoxic, single point]
CCc1ccc(NC(=O)CN2C(=O)C(c3ccccc3)=NC23CCCCCC3)cc1	inconclusive: 39.8 µM [cytotoxic, single point]
CCC(=O)N1CCc2cc(Br)cc(S(=O)(=O)CCC(=O)NCCc3ccccc3Cl)c21	inconclusive: 20 µM [cytotoxic, partial curve]
O=C(Cn1nc(Cc2cccnc2)c2ccccc2c1=O)Nc1cccc(C(F)(F)F)c1	inactive
CCC(=O)OCCCNc1nc(-c2ccc(Cl)cc2)nc2ccccc12	inconclusive: 39.8 µM [cytotoxic, single point]

SMILES	Potency
CN(CC(=O)Nc1ccc(F)cc1F)S(=O)(=O)c1ccc(C(=O)N2CCOCC2)s1	inconclusive: 39.8 µM [cytotoxic, single point]
O=C(NCc1cccc(Br)c1)c1cccn1-c1nnc(N2CCCCC2)s1	inconclusive: 20 µM [cytotoxic, partial curve, poor fit]
Cc1ccc(C)n1-c1nnc(N2CCCC(C(=O)NCc3ccc(F)cc3)C2)s1 (stereo unspecified)	inconclusive: 25.1 µM [cytotoxic, partial curve, poor fit]
COc1ccccc1N(Cc1cc2cccc(C)c2[nH]c1=O)C(=O)c1cccc(Cl)c1	inconclusive: 17.8 µM [cytotoxic, partial curve]
CCOC(=O)c1ccc(NC(=O)Cc2ccc(-n3c(CC)nc4cccnc43)cc2)cc1	inactive
COc1cc(NC(=O)Cn2c(C)cc3ccccc3c2=O)cc(OC)c1OC	inconclusive: 15.8 µM [rising, partial curve]
COc1cc(OC)cc(C(=O)Nc2c(C(=O)Nc3ccc(F)cc3)oc3ccccc23)c1	inactive
COc1ccc(NC(=O)Cn2c(SCc3ccc(C)cc3)nc3cccnc32)c(OC)c1	inconclusive: 10 µM [cytotoxic, partial curve, poor fit]
CCOc1cc(C(=O)Nc2ccc(-c3nc4ncccc4o3)cc2C)cc(OCC)c1OCC	inconclusive: 31.6 µM [cytotoxic, partial curve]
Cc1cccc(-c2nc(SCC(=O)Nc3ccc4c(c3)OCO4)c(-c3ccccc3)[nH]2)c1	inconclusive: 39.8 µM [cytotoxic, single point]
CCCCCN1C(C(=O)c2ccccc2)=C(NC(=O)c2ccccc2Cl)c2ccccc2S1(=O)=O	inconclusive: 1 µM [cytotoxic, full curve, poor fit]
Cc1ccc(Cl)cc1N1CCN(C(=O)C2CCN(Cc3nc(-c4ccc(Cl)cc4)oc3C)CC2)CC1	inconclusive: 39.8 µM [cytotoxic, single point]
COc1ccccc1CNC(=O)c1cnn2c(C)c(Cc3ccc(F)cc3)c(C)nc12	inconclusive: 0.562 µM [rising, partial curve, poor fit]
Cc1ccc(C(c2sc3nc(-c4ccco4)nn3c2O)N2CCN(Cc3ccccc3)CC2)cc1 (stereo unspecified)	inactive
Cc1ccc(Cn2c(=O)n(Cc3ccccc3Cl)c(=O)c3ccccc32)cc1	inconclusive: 0.178 µM [cytotoxic, full curve, poor fit]
Cc1cccc(-c2nc(SCC(=O)Nc3ccc4c(c3)OCCO4)c(-c3ccccc3)[nH]2)c1	inconclusive: 25.1 µM [cytotoxic, single point]
Cc1ccc(Cl)cc1N1CCN(C(=O)C2CCN(Cc3nc(-c4cccc(Cl)c4)oc3C)CC2)CC1	inconclusive: 28.2 µM [cytotoxic, single point]
Cc1ccc(C(=O)COC(=O)CCC(=O)Nc2ccc(Oc3ccccc3)cc2)cc1C	inactive
COc1ccc(-c2onc(C)c2C)cc1S(=O)(=O)NC1CCC(C)CC1 (stereo unspecified)	inconclusive: 22.4 µM [cytotoxic, single point]
